The list shows a part of the results.
Key:
HSkMC = human skeletal muscle cells; assay: cytotoxicity call (relative viability < 0.9); details: 10 µM
HepG2 = assay: cytotoxicity call (relative viability < 0.9); details: 10 µM
S. aureus RN4220 = assay: growth inhibition call (relative growth <= 0.2); details: 50 µM

Compound | cytotoxicity call (HSkMC) | cytotoxicity call (HepG2) | growth inhibition call (S. aureus RN4220)
COc1cccc(NC(=O)N2C[C@H](O)COC[C@H]3O[C@@H](CC(=O)NCCCN4CCOCC4)CC[C@@H]32)c1 | inactive | inactive | inactive
COCC(=O)N1C[C@@H](C)[C@H](OC)CN(C)C(=O)c2ccc(NC(=O)c3ccc(F)cc3)cc2OC[C@@H]1C | inactive | inactive | inactive
C[C@@H]1CN([C@@H](C)CO)C(=O)c2cc(NS(=O)(=O)c3ccc(Cl)cc3)ccc2O[C@@H](C)CCCCO[C@@H]1CN(C)CC1CCCCC1 | inactive | inactive | inactive
CCOC(=O)C(=O)N(C)CC(OC)OC | inactive | inactive | inactive
C[C@@H]1CN([C@H](C)CO)C(=O)Cc2cc(NS(=O)(=O)c3cccs3)ccc2O[C@H]1CN(C)Cc1ccc(Oc2ccccc2)cc1 | inactive | active | inactive
C[C@@H]1CCCCO[C@@H](CN(C)C(=O)Nc2ccc(F)cc2)[C@H](C)CN([C@@H](C)CO)C(=O)c2cc(NC(=O)CCCN(C)C)ccc2O1 | inactive | inactive | inactive
C=CC[C@H](CC(=O)NCCO)C(=O)NC[C@@H](OC(=O)[C@H](CC=C)CC(=O)OC(C)(C)C)c1ccccc1 | inactive | inactive | inactive
CN(C)CC(=O)N[C@H]1CC[C@@H](CCn2cc(CN(C)C)nn2)O[C@H]1CO | inactive | inactive | inactive
CCNC(=O)CCC(N)C(=O)[O-].[K+] (stereo unspecified) | inactive | inactive | inactive
C[C@@H]1CCCCO[C@@H](CN(C)C(=O)Nc2ccc(C(F)(F)F)cc2)[C@@H](C)CN([C@H](C)CO)C(=O)c2cc(NC(=O)C3CCCCC3)ccc2O1 | inactive | inactive | inactive
C[C@@H]1CN([C@H](C)CO)C(=O)c2cccc(NC(=O)C3CC3)c2O[C@@H]1CN(C)C(=O)Nc1ccc2c(c1)OCO2 | inactive | inactive | inactive
C[C@@H]1CCCCO[C@H](CN(C)Cc2ccc3c(c2)OCO3)[C@@H](C)CN([C@@H](C)CO)C(=O)c2cc(NC(=O)NC3CCCCC3)ccc2O1 | inactive | active | inactive
Cc1noc(C)c1NC(=O)Nc1ccc2c(c1)C(=O)N([C@H](C)CO)C[C@H](C)[C@H](CN(C)S(C)(=O)=O)O2 | inactive | inactive | inactive
C[C@H](CO)N1C[C@H](C)[C@H](CN(C)C(=O)CCC(F)(F)F)OCCCC[C@H](C)Oc2ccc(NC(=O)Nc3ccccc3)cc2C1=O | inactive | inactive | inactive
C[C@@H]1CN([C@H](C)CO)C(=O)Cc2cc(NC(=O)Cc3cn(C)c4ccccc34)ccc2O[C@@H]1CN(C)S(=O)(=O)c1cn(C)cn1 | inactive | inactive | inactive
CC1(C)CC[C@]2(C(=O)O[C@H]3O[C@@H](CO)[C@@H](O)[C@@H](O)[C@@H]3O)CC[C@]3(C)C(=CC[C@H]4[C@@]5(C)C[C@@H](O)[C@H](O[C@H]6O[C@H](C(=O)O)[C@@H](O)[C@@H](O)[C@@H]6O)C(C)(C)[C@@H]5CC[C@]43C)[C@@H]2C1 | inactive | inactive | inactive
C[C@H]1CN([C@@H](C)CO)C(=O)Cc2cc(NC(=O)Cc3cn(C)c4ccccc34)ccc2O[C@@H]1CN(C)C(=O)Nc1cccc2ccccc12 | inactive | inactive | inactive

From the antibiotic and cytotoxicity screens of Wong et al. (2023)
